From PubChem BioAssay AID1347073 (National Center for Advancing Translational Sciences (NCATS), 2019) come the findings set out here.

The structures appear in SMILES notation. The whole screen tested about 45,000 compounds, of which about 200 (0.44%) were called active. Not shown: some 7% with an inconclusive outcome. The call rests on the fitted dose curve; in most records, active means well fitted activation curve with a large enough effect; inconclusive means small, poorly fitted or top-dose-only effect; inactive means no such curve, though single readings can be large or run the other way. The list shows a part of the results.
Potency means the concentration at half of the fitted maximal effect.

This experiment can be described thus: qHTS of TDP-43 Inhibitors: NCGC Sytravon Library Screen. Further: nearly all actives have a fitted effect of over 55% in size. On growth rescue (activation): 0% is about no effect. The conditions noted are these: yeast TDP-43 toxicity rescue, BacTiter-Glo growth, 24 h; series mostly up to 46.1 µM; growth rescue (activation): at the top concentration. In outline: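 TDP-43-expressing yeast, pregrown in raffinose, seeded at OD600 0.02 in galactose medium with compound for 24 hr at 30 deg C. Growth read by BacTiter-Glo luminescence, so rescue of toxicity appears as activation.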
For orientation: Quantitative high-throughput screening tests each substance at several concentrations.
On to `O=C(COc1ccccc1[N+](=O)[O-])Nc1cc(C(=O)O)cc(C(=O)O)c1`, for which the “growth rescue (activation)” value is inactive: 6.12%.

As for `O=C(NNC(=O)c1cc2ccccc2oc1=O)c1ccccc1`, the “growth rescue (activation)” value is inactive: -4.21%.

Take `COc1ccc2c(/C=N/NS(=O)(=O)c3ccc(C)cc3)c[nH]c2c1`: the “growth rescue (activation)” value is inactive: 24.5%. Regarding `CC(=O)c1ccc(N(C(=O)Cn2nnc3ccccc32)C(C(=O)NCc2ccccc2)c2ccccn2)cc1` (centres undefined), the “growth rescue (activation)” value is inactive: 3.3%. As to `CCCN(CCC)C(=O)c1ccc2c(=O)n(Cc3ccco3)c(=S)[nH]c2c1`, the “growth rescue (activation)” value was inactive: 18%. On the same count and under the same terms, under `Cc1ccc(S(=O)(=O)N(C)C)cc1-n1c(SCC(=O)Nc2ccccc2)nc2ccccc2c1=O` stands inactive: 12.7%; under `CCc1ccccc1NC(=O)CSc1nnc(CCNC(=O)OC(C)(C)C)o1`, inactive: 8.52%; under `CC(C)(C)c1ccc(S(=O)(=O)/N=C2\C=C(NS(=O)(=O)c3ccccc3)C(=O)c3ccccc32)cc1`, inactive: 22.7%.

For `O=C(NNS(=O)(=O)c1ccccc1[N+](=O)[O-])c1cc2ccccc2cc1O`, the “growth rescue (activation)” value was inactive: -5.59%. `COc1ccc(S(=O)(=O)c2c[nH]c(=S)[nH]c2=O)cc1Cl`: the “growth rescue (activation)” value is inactive: -2.27%. As to `O=C(CSc1n[nH]c(-c2ccccc2Cl)n1)NCc1cccc(C(=O)O)c1`, the “growth rescue (activation)” value is inactive: 3.42%. On to `Cc1ccc(C)c(NC(=S)N(C2CCCCC2)C(C)c2cccnc2)c1` (centres undefined), for which the “growth rescue (activation)” value was inactive: 11.3%. As to `COc1ccc(O)c(C(=O)c2cc(SCC(=O)O)c3nc4sc5c(c4c(=O)n3c2)CCCC5)c1`, the “growth rescue (activation)” value was inactive: 26.5%.

Turning to `CCc1nc2c(OCc3ccccc3)cccn2c1N(C)C(=O)C(C)C`, the “growth rescue (activation)” value was inactive: -0.88%.

Regarding `CC(C(=O)Nc1cccc([N+](=O)[O-])c1)N(c1ccccc1)S(C)(=O)=O` (centres undefined), the “growth rescue (activation)” value was inactive: 9.68%. As to `CCOC(=O)c1nc2ccccc2c(C)c1C`, the “growth rescue (activation)” value is inactive: -3.4%. With `COCCNc1nnc(SC(C)C(=O)Nc2ccc(-c3nc4ccc(C)cc4s3)cc2)s1` (centres undefined), the “growth rescue (activation)” value is inactive: 9.88%. On to `O=C(c1csc2ccccc12)N1CCN(c2ccccn2)CC1`, for which the “growth rescue (activation)” value was inactive: -2.44%. As to `COC(=O)c1ccc2nc(NC(=O)COC(=O)CSc3nc(C)cc(C)n3)sc2c1`, the “growth rescue (activation)” value is inactive: -14.8%. For the compound `COc1ccc(-n2c(=S)[nH]c3cc(C(=O)N4CCN(c5ccccc5)CC4)ccc3c2=O)cc1`, the “growth rescue (activation)” value is inactive: -2.41%.

In the case of `COc1cc(NC(=O)C2(C)CCCN(C(C)C)C2)cc(OC)c1OC` (centres undefined), the “growth rescue (activation)” value is inactive: 8.09%. With `O=C(NCC1CCN(C(=O)c2c(F)c(F)c(F)c(F)c2F)CC1)c1c(F)c(F)c(F)c(F)c1F`, the Potency is active: 17.8 µM. In the case of `CC(Sc1nc(-c2ccccc2)cc(C(F)(F)F)n1)C(=O)Nc1sc2c(c1C(N)=O)CCC2` (centres undefined), the “growth rescue (activation)” value is inactive: 16.4%. Turning to `O=[N+]([O-])c1ccccc1-c1ccc(C(=S)N2CCCC2)o1`, the “growth rescue (activation)” value was inactive: 3.05%.

Regarding `O=C(COC(=O)CCOc1ccccc1)Nc1ncc(Cl)cc1Cl`, the “growth rescue (activation)” value is inactive: 26.4%. Take `COc1ccc(CCNC(=O)c2cc(=O)[nH]c3ccc(Br)cc23)cc1OC`: the “growth rescue (activation)” value was inactive: 14.3%.

Turning to `O=C(COC(=O)Cn1cnc2ccccc21)Nc1cccc([N+](=O)[O-])c1`, the “growth rescue (activation)” value was inactive: -3.83%. Turning to `Cc1cc(C)n2nc(C(=O)N/N=C/c3cccs3)nc2n1`, the “growth rescue (activation)” value is inactive: -2.76%. Same read-out and setting: under `N#C/C(=C\c1ccc(/C=C(/C#N)c2nn(CCO)c(N)c2C#N)cc1)c1nn(CCO)c(N)c1C#N` stands inactive: 0.27%; under `CCOC(=O)c1[nH]ncc1CN1CCCC(C(=O)c2ccc(OC)c(OC)c2)C1` (centres undefined), inactive: 16.5%; under `CCN(NC(=O)C(O)(c1ccccc1)c1ccccc1)C(=O)c1ccccc1`, inactive: 21%. Take `O=C(CSc1nnc(CNc2ccc(F)cc2)n1CC1CCCO1)N1CCOCC1` (centres undefined): the “growth rescue (activation)” value is inactive: -1.72%. Same read-out and setting: under `CCN1C(=C(C#N)C#N)C=Cc2cc(C)ccc21` stands inactive: 7.43%; under `CN(CC(=O)Nc1ccccc1Cl)CC(=O)N(C)c1c(N)n(Cc2ccccc2)c(=O)[nH]c1=O`, inactive: -8.1%. Take `CC(C)n1cc(/C=C2/NC(=O)NC2=O)c2ccccc21`: the “growth rescue (activation)” value is inactive: -11.5%. As for `CCCS(=O)(=O)NC(=O)C1(C)CCN(C(=O)c2cc(OC)c(OC)c(OC)c2)C1` (centres undefined), the “growth rescue (activation)” value was inactive: 4.59%. For the compound `COc1ccc(C(=O)OCC(=O)N2CCC(C)CC2)cc1S(=O)(=O)N1CCOCC1`, the “growth rescue (activation)” value is inactive: 24.1%.

`COc1ccc(NS(=O)(=O)c2ccc(Cl)c(N)c2)cc1Br`: the “growth rescue (activation)” value is inactive: -16.5%. In the case of `O=C(Cc1ccc(-n2cccc2)cc1)NCc1ccccc1Cl`, the “growth rescue (activation)” value was inactive: 24.3%. Still for that read-out and setting: then `CCn1cnc2c1c(=O)n(Cc1ccc(C(=O)OC)cc1)c(=O)n2Cc1ccccc1`, with inactive: 16%; and `CC(C)(C)c1ccc(C(=O)NCC(=O)N/N=C/c2ccccc2OCC(=O)O)cc1`, with inactive: 3.8%.

With `CCOc1ccccc1NC(=O)CN1CCC(NC(=O)c2ccccc2C)CC1`, the “growth rescue (activation)” value is inactive: 2.91%. For the compound `CCOc1ccc(Oc2c(C)oc3cc(O)ccc3c2=O)cc1`, the “growth rescue (activation)” value is inactive: 10.3%. Consider `CCc1n[nH]c(=O)c2cc3cc(OC)ccc3n12`, for which the “growth rescue (activation)” value was inactive: 21.5%. As for `COc1ccc(S(=O)(=O)N2CCN(c3ccccc3OC)CC2)cc1C(=O)N1CCCCC1`, the “growth rescue (activation)” value is inactive: 11.7%. For the compound `Fc1ccccc1OCC1CCCN(Cc2nc(CC3CC3)no2)C1` (centres undefined), the “growth rescue (activation)” value was inactive: -6.87%. Still for that read-out and setting: then `COc1cccc(NC(=O)c2nc(SC)ncc2Cl)c1`, with inactive: 19.7%; and `COC(=O)c1cc(-c2cc(OC)ccc2OC)nc2c1c(=O)n(C)c(=O)n2Cc1ccccc1`, with inactive: -0.811%; and `Cc1ccc(NC(=O)COC(=O)c2nn(-c3ccc(Cl)cc3)cc2O)cc1`, with inactive: -1.77%. For the compound `CC(C)CN1C2CCCC1CC(NC(=S)NCc1ccco1)C2` (centres undefined), the “growth rescue (activation)” value is inactive: 10.6%. In the case of `COc1ccccc1CCC(=O)N1CCN(C(=O)c2ccccc2)CC1`, the “growth rescue (activation)” value was inactive: -1.86%. As for `O=C(Nc1ccc(C(=O)O)cc1)/C(=C\c1ccc([N+](=O)[O-])cc1)NC(=O)c1ccc(Br)cc1`, the “growth rescue (activation)” value is inactive: 2.78%.

Consider `Cc1nccn1CC(O)COc1ccc(Cl)cc1Cl` (centres undefined), for which the “growth rescue (activation)” value was inactive: -5.56%. `COc1cccc(C(=O)CC(=O)C(=O)Nc2cccc([N+](=O)[O-])c2C)c1`: the “growth rescue (activation)” value was inactive: 18.8%. On the same count and under the same terms, under `CC(=O)c1ccc(NC(=O)c2cc(C)nn2-c2ccccc2)cc1` stands inactive: 21.7%; under `Cc1ccc(C(=O)Nc2nnn(C)n2)cc1`, inactive: -3.31%; under `COc1ccc(C(C)=O)cc1CC1(C)C(=O)Nc2ccc(OC(F)(F)F)cc21` (centres undefined), inactive: -13.9%. As for `CC1CC(C)CN(C(=O)COC(=O)CCC(=O)c2cccs2)C1` (centres undefined), the “growth rescue (activation)” value is inactive: -12.3%. `O=C(NCCCO)c1ccc(CSc2nc3ccccc3[nH]2)cc1`: the “growth rescue (activation)” value is inactive: 9.06%. `CCCc1nc(SCC(=O)c2ccc3c(c2)NC(=O)CO3)[nH]c(=O)c1CC`: the “growth rescue (activation)” value was inactive: -0.345%. For the compound `O=C(CSc1nc(O)cc(=O)[nH]1)N1CCCc2ccccc21`, the “growth rescue (activation)” value is inactive: -11.3%. Still for that read-out and setting: then `O=S(=O)(Nc1nc(-c2ccccc2)cs1)c1cccc(C(F)(F)F)c1`, with inactive: -1.32%; and `COCCCNC(=O)c1ccc([N+](=O)[O-])c(Cl)c1`, with inactive: -14.5%. `CCOc1ccc(NCc2cccn2-c2nnc(N3CCC(C(=O)NCc4ccccc4Cl)CC3)s2)cc1`: the “growth rescue (activation)” value was inactive: 8.42%.
